Source: the supplement of paper PMC12067230
Single values of this set are uncertain.

Test: amyloid nucleation score relative to library mode (yeast Sup35 reporter selection) (log enrichment difference); higher = more amyloid nucleation; sequences are the first 22 residues of the Bri2 peptide extended by up to 12 random residues
Settings: random library (experiment): 1;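 active = nucleation score significantly above 0 at FDR 0.05; inactive = not significantly above 0 or absent from output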
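Further: [psi-pin-] Saccharomyces cerevisiae expressing SupN fusions, induced by 100 µM Cu2SO4, selected 7 d at 30 °C without adenine and uracil, scored by deep sequencing of output versus input.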

Sequence | amyloid nucleation score
EASNCFAIRHFENKFAVETLICDDFQVNVTVIAG | inactive
EASNCFAIRHFENKFAVETLICLSLVQSHGPGET | 6.87
EASNCFAIRHFENKFAVETLICASARPPSLMRLF | inactive
EASNCFAIRHFENKFAVETLICVCVENPFGTGSV | 7.61
EASNCFAIRHFENKFAVETLICRYKFSTVTFVPC | inactive
EASNCFAIRHFENKFAVETLICHCLGGE | 7.63
EASNCFAIRHFENKFAVETLICTWSMNYVSQMSR | inactive
EASNCFAIRHFENKFAVETLICGATFD | 3.12
EASNCFAIRHFENKFAVETLICLASGGGWLAPRT | inactive
EASNCFAIRHFENKFAVETLICAVGTPIPVSSRW | inactive
EASNCFAIRHFENKFAVETLICVSHRNLRVGIMP | inactive
EASNCFAIRHFENKFAVETLICTFLRS | inactive
EASNCFAIRHFENKFAVETLICYCSCSVSGYKRR | 8.95
EASNCFAIRHFENKFAVETLICAEWV | inactive
EASNCFAIRHFENKFAVETLICRVGSLGRHKSRP | inactive
EASNCFAIRHFENKFAVETLICVNTAYESDVWLS | inactive
EASNCFAIRHFENKFAVETLICITCVVPLLLSDR | 3.7
EASNCFAIRHFENKFAVETLICGMWRKRVMYPVA | inactive
EASNCFAIRHFENKFAVETLICPVARRWTVEAGA | inactive
EASNCFAIRHFENKFAVETLICAAYRYTAHVARW | inactive
EASNCFAIRHFENKFAVETLICRFPHLAKLYMTV | inactive
EASNCFAIRHFENKFAVETLICGISWSLWKEGRW | inactive
EASNCFAIRHFENKFAVETLICVTS | inactive
EASNCFAIRHFENKFAVETLICNDSGCLQGRATW | inactive
EASNCFAIRHFENKFAVETLICGWAERPRWCPVR | inactive
EASNCFAIRHFENKFAVETLICLTYAASKRALL | -0.187
EASNCFAIRHFENKFAVETLICRQRRQGVRGKWG | 0.0198
EASNCFAIRHFENKFAVETLICWLHCQYRHLRWT | -0.0846

Sequence | amyloid nucleation score
EASNCFAIRHFENKFAVETLICMY | 1.79
EASNCFAIRHFENKFAVETLICDGHGRPPVWRV | inactive
EASNCFAIRHFENKFAVETLICAMRRGLEGLVWR | inactive
EASNCFAIRHFENKFAVETLICDLRDLRI | inactive
EASNCFAIRHFENKFAVETLICFRHMLYFREITP | inactive
EASNCFAIRHFENKFAVETLICLCAAEAASPPDW | inactive
EASNCFAIRHFENKFAVETLICCFIMTS | 7.26
EASNCFAIRHFENKFAVETLICTPALTGPRLCVR | inactive
EASNCFAIRHFENKFAVETLICTYDVCHKRRMRQ | 4.3
EASNCFAIRHFENKFAVETLICWLFARSEKMFDP | inactive
EASNCFAIRHFENKFAVETLICAAPCTLIMISAG | inactive
EASNCFAIRHFENKFAVETLICALPLPTLEAAFF | -0.0755
EASNCFAIRHFENKFAVETLICVSVWIKGFSVVK | inactive
EASNCFAIRHFENKFAVETLICCGARWCASWGSE | 8.6
EASNCFAIRHFENKFAVETLICHSFMRSWWSSRP | inactive
EASNCFAIRHFENKFAVETLICRSCMCVELGWKR | 4.08
EASNCFAIRHFENKFAVETLICVWIHGMCFKLWM | inactive
EASNCFAIRHFENKFAVETLICGHW | 4.55
EASNCFAIRHFENKFAVETLICTCWFYGS | 5.22
EASNCFAIRHFENKFAVETLICVGGARECIQARL | 0.0711
EASNCFAIRHFENKFAVETLICVLRDEFTLRDYL | 4.05
EASNCFAIRHFENKFAVETLICCLSHHLGTSSCR | inactive
EASNCFAIRHFENKFAVETLICESYVTRRLPRCS | inactive
EASNCFAIRHFENKFAVETLICTMLRAGRRACRR | 4.33
EASNCFAIRHFENKFAVETLICYHGWDTSGDMGY | 0.879
EASNCFAIRHFENKFAVETLICNTRMRTGVGTAR | inactive
EASNCFAIRHFENKFAVETLICGGNLSLGHTLR | 4.62

Same assay, conditions: random library (experiment): 2

Sequence | amyloid nucleation score
EASNCFAIRHFENKFAVETLICGYGWRTGECCGL | inactive
EASNCFAIRHFENKFAVETLICLILIDASVSTMG | inactive
EASNCFAIRHFENKFAVETLICDLPALMGESHWA | inactive
EASNCFAIRHFENKFAVETLICAFEMRNSFTN | 6.26
EASNCFAIRHFENKFAVETLICRAPLNSN | inactive
EASNCFAIRHFENKFAVETLICRDNSFKLCCGLC | 7.43
EASNCFAIRHFENKFAVETLICYRVYELGVVLCR | inactive
EASNCFAIRHFENKFAVETLICYRPESFVGNSFL | 5.45
EASNCFAIRHFENKFAVETLICNCEGSDGLWVVC | -0.239
EASNCFAIRHFENKFAVETLICTSREGNMPAGSV | inactive
EASNCFAIRHFENKFAVETLICLFWTKNTLANLC | inactive
EASNCFAIRHFENKFAVETLICYDPYYSSGTS | 1.58
EASNCFAIRHFENKFAVETLICNCPIVLRGVFVV | inactive
EASNCFAIRHFENKFAVETLICGCVVWVVSVSVS | 0.571
EASNCFAIRHFENKFAVETLICWMNQLYIWHSRE | inactive
EASNCFAIRHFENKFAVETLICVGSECGLHLRRP | -0.174

Sequence | amyloid nucleation score
EASNCFAIRHFENKFAVETLICIQSKRSPFLVRH | 2.96
EASNCFAIRHFENKFAVETLICLMFE | 3.22
EASNCFAIRHFENKFAVETLICRLWW | inactive
EASNCFAIRHFENKFAVETLICGYTFCCYVGPRS | inactive
EASNCFAIRHFENKFAVETLICDTYNRRGICNGG | inactive
EASNCFAIRHFENKFAVETLICRDSISNGNSVEW | 0.844
EASNCFAIRHFENKFAVETLICYSVVALVYGHMS | inactive
EASNCFAIRHFENKFAVETLICAELSRRFSMVLC | inactive
EASNCFAIRHFENKFAVETLICCSSFSINCLKDA | 8.48
EASNCFAIRHFENKFAVETLICRHTCTSDTYIAH | 4.61
EASNCFAIRHFENKFAVETLICDTEISSSFLGYS | 0.625
EASNCFAIRHFENKFAVETLICGQTGPEPGCEGG | inactive
EASNCFAIRHFENKFAVETLICMCHFDVTCAEVC | inactive
EASNCFAIRHFENKFAVETLICLRVLYRNYLLGA | inactive
EASNCFAIRHFENKFAVETLICCHGLVDCEVKFW | 7.84
EASNCFAIRHFENKFAVETLICLAWKYFHVSPVR | inactive

Same assay, conditions: random library (experiment): 3

Sequence | amyloid nucleation score
EASNCFAIRHFENKFAVETLICVLRDVFRLFNRC | 0.0846
EASNCFAIRHFENKFAVETLICMFWWD | inactive
EASNCFAIRHFENKFAVETLICVRQYALFKTMLV | inactive
EASNCFAIRHFENKFAVETLICRSQHTPFAIRHG | inactive
EASNCFAIRHFENKFAVETLICVKKAFYQRDVVS | inactive
EASNCFAIRHFENKFAVETLICGLAAICGVFGR | 2.19
EASNCFAIRHFENKFAVETLICQCELLRVDWAW | inactive
EASNCFAIRHFENKFAVETLICHERRRYVPGYGR | inactive
EASNCFAIRHFENKFAVETLICTPMCSFNQVGSC | 7.47
EASNCFAIRHFENKFAVETLICILSNLTDKSDVL | 6.13
EASNCFAIRHFENKFAVETLICLVVNVSHRGQGM | 2.62
EASNCFAIRHFENKFAVETLICVCGSSLVPRDRG | 7.72
EASNCFAIRHFENKFAVETLICLVEDTTWRVKGR | 3.17
EASNCFAIRHFENKFAVETLICRRCALARSKGKV | inactive
EASNCFAIRHFENKFAVETLICLMCSWREWEACQ | 6.41
EASNCFAIRHFENKFAVETLICLGERTWCSWT | inactive

Sequence | amyloid nucleation score
EASNCFAIRHFENKFAVETLICTYQGRLRWAIIR | inactive
EASNCFAIRHFENKFAVETLICPYGMKLPYVILV | 1.34
EASNCFAIRHFENKFAVETLICYRVGV | inactive
EASNCFAIRHFENKFAVETLICICRMCYSEATDT | 7.49
EASNCFAIRHFENKFAVETLICATRLVTAGSQWS | inactive
EASNCFAIRHFENKFAVETLICVSVCAADCYGL | 5.35
EASNCFAIRHFENKFAVETLICATIVGSD | inactive
EASNCFAIRHFENKFAVETLICRTLVLWCTLGHG | inactive
EASNCFAIRHFENKFAVETLICLDRKDCYETLCS | inactive
EASNCFAIRHFENKFAVETLICLVALRGGPCS | inactive
EASNCFAIRHFENKFAVETLICGRRDGARLACRV | inactive
EASNCFAIRHFENKFAVETLICLGLLFFVQMIWG | 2.99
EASNCFAIRHFENKFAVETLICCSGRLYWHVVFR | inactive
EASNCFAIRHFENKFAVETLICKLCYLSPKKDGR | inactive
EASNCFAIRHFENKFAVETLICFVYFFMCLNHSH | inactive
